Results: US20250313626A1 (HARBOUR BIOMED SHANGHAI, published 2025)
Numbering of substitutions follows the chain as printed. Names may count otherwise. Read-outs that look alike come from different tables or passages of the source.

T1: human CD200R1 isoform a on CHOK1 cells (CHOK1/hCD200R1a) (human, UniProt Q8TD46 25-348)
T1 construct: also called CHOK1/CD200R1a
T1 sequence: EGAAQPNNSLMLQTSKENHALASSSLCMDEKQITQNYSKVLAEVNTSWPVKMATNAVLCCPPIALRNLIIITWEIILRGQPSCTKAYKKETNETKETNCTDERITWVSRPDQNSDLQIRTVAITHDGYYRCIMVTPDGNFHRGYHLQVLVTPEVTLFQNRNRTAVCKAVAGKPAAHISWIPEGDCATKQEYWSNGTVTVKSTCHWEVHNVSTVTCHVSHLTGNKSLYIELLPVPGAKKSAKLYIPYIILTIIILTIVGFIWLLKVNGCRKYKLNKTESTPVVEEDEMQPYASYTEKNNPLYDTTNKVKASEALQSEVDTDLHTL

T2: human CD200R1a protein (soluble recombinant) (human, UniProt Q8TD46 29-265)
T2 construct: Soluble protein used in BLI; also called human CD200R1 isoform a; not shown: His tag implied by capture on anti-Penta-HIS biosensors
T2 sequence: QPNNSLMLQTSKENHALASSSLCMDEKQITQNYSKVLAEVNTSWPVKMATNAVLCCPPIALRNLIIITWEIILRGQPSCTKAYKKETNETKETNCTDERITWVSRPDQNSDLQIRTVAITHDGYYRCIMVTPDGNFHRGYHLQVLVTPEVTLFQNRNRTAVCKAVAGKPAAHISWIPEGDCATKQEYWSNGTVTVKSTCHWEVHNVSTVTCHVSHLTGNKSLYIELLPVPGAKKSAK

T3: Cyno CD200R1a-His (Cynomolgus macaques, UniProt Q8TD46 25-265 (human entry))
T3 construct: Soluble protein used in BLI; also called Cynomolgus macaques CD200R1a recombinant protein; not shown: His tag
T3 chain: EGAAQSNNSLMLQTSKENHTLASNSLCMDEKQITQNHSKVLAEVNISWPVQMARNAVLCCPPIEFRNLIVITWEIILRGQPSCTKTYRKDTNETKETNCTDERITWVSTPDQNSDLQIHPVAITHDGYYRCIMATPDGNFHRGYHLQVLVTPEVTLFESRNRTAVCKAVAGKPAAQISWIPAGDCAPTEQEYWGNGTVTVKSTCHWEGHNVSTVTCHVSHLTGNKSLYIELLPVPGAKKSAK

T4: CD200R1a on PathHunter Jurkat CD200R1a signaling cells (Eurofins DiscoverX, 93-1136C19) (human, UniProt Q8TD46 25-348)
T4 sequence: T1 sequence

T5: Cynomolgus macaques CD200R1 isoform a on CHOK1 cells (CHOK1/cynoCD200R1a) (Cynomolgus macaques)
T5 chain: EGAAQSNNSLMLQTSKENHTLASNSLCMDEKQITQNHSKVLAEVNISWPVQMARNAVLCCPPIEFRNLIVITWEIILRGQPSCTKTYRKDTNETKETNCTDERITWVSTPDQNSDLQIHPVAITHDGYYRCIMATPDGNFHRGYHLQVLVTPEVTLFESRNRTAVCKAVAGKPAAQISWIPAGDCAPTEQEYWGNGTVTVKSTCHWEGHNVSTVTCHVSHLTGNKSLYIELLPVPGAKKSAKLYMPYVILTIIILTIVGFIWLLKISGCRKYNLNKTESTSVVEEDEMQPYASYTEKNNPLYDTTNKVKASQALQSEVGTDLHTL

B1: PR005514 (antibody, human IgG1, kappa, L234A L235A)
heavy: QVQLVESGGGVVQPGRSLRLSCAASGFTFSSYGFHWVRQAPGKGLEWLGLIWSDGSNKYYADSVKGRFTISRDNSKNTLYLQMNSLRAEDTAVYYCARDRIVGEGFDYWGQGTLVTVSSASTKGPSVFPLAPSSKSTSGGTAALGCLVKDYFPEPVTVSWNSGALTSGVHTFPAVLQSSGLYSLSSVVTVPSSSLGTQTYICNVNHKPSNTKVDKKVEPKSCDKTHTCPPCPAPEAAGGPSVFLFPPKPKDTLMISRTPEVTCVVVDVSHEDPEVKFNWYVDGVEVHNAKTKPREEQYNSTYRVVSVLTVLHQDWLNGKEYKCKVSNKALGAPIEKTISKAKGQPREPQVYTLPPSREEMTKNQVSLTCLVKGFYPSDIAVEWESNGQPENNYKTTPPVLDSDGSFFLYSKLTVDKSRWQQGNVFSCSVMHEALHNHYTQKSLSLSPGK
light: not shown
notes: also called PR60814
B2: PR006839 (antibody, human IgG1, kappa)
heavy: B1 heavy with G239A, G331P
light: not shown
notes: Fc variant of PR005514: human IgG1 with L234A, L235A, G237A (EU)

Tests used:
[1] = biological target: T1, human CD200R1 isoform a on CHOK1 cells …; assay: flow cytometry, CHOK1/hCD200R1a cells; table beside the curves
Description: (§1) This example is intended to investigate the in vitro binding activity of human anti-CD200R1 monoclonal antibodies to human/Cynomolgus macaques CD200R1a expressed on the surface of cells. The anti-CD200R1 antibodies were produced as described in Example 3.4 and the binding experiments at the cell level were performed using CHOK1/hCD200R1a and CHOK1-cynoCD200R1a.
(§2) Briefly, CHOK1/hCD200R1a cells and CHOK1-cynoCD200R1a cells were digested, and collected, and then were resuspended in PBS containing 2% BSA, respectively. The cell density was adjusted to 1×10⁶ cells/mL. The cells were seeded in a 96-well V-bottom plate (Corning, #3894) at 100 μL/well, followed by the addition of test antibodies and reference antibodies in a series diluted concentration, each at 100 μL/well. The cells were incubated away from light at 4° C. for 1 h. Thereafter, the cells in each well were rinsed twice with 100 μL of pre-cooled PBS containing 2% BSA, and centrifuged at 500 g at 4° C. for 5 min, and then the supernatant was discarded. […] Finally, the cells in each well were resuspended in 200 μL of pre-cooled PBS containing 2% BSA, and the fluorescence signal values were read using a BD CantoII flow cytometer.

[2] = biological target: T1, human CD200R1 isoform a on CHOK1 cells …; assay: flow cytometry, CHOK1/hCD200R1a cells (FITC-Mean); table beside the curves
Description: as §1, §2

[3] = biological target: T2, human CD200R1a protein (soluble …); assay: BLI (Octet), antibody captured on anti-human Fc sensor, soluble CD200R1a as analyte, 1:1 fit
Description: (§3) To determine the binding affinities of the anti-CD200R1 antibodies to CD200R1a proteins of various species (mouse, human, Cynomolgus macaques), bio-layer interferometry (BLI) assays were carried out using an Octet® RED96e instrument. Antibodies were produced as described in Example 3.4 and diluted to 5 μg/mL using freshly prepared 1× kinetic buffer (10× kinetic buffer (Catalog #18-1105, ForteBio) was diluted with PBS(Catalog #E607016-0500, BBI Life Sciences)) and were captured on the surface of anti-human Fc (AHC) Octet biosensors (Catalog #18-5060, ForteBio) to reach capture levels between 0.9-1.2 nm. The biosensors having the captured anti-CD200R1 antibodies were then dipped in wells containing 2-fold serial dilutions of CD200R1a proteins to detect association signals, followed by dissociation steps in wells containing 1× kinetic buffer. The sensorgrams were recorded and the reference signals were subtracted before curve fitting using ForteBio Data Analysis 11.0 software. Association rates (kₒₙ) and dissociation rates (koff) were calculated using a simple one-to-one Langmuir binding model. The equilibrium dissociation constant (KD) was calculated as the ratio of koff/kₒₙ.

Cyno CD200R1a-His = biological target: T3, Cyno CD200R1a-His; assay: as above
Description: as §3

[4] = biological target: T1, human CD200R1 isoform a on CHOK1 cells …; assay: flow cytometry, CHOK1/hCD200R1a cells; table beside the curves, head without unit, x axis Log [Ab] (nM)
Description: as §1, §2

[5] = biological target: T1, human CD200R1 isoform a on CHOK1 cells …; assay: flow cytometry blocking assay: biotin-labelled human CD200 binding to CHOK1/hCD200R1a cells; y axis Inhibition %
Description: (§4) In brief, CHOK1/hCD200R1a cells were digested and resuspended in 2% BSA in PBS. […] The cells were placed at 4° C. and incubated for 1 hour in the dark. […] 100 μL/well of pre-cooled PBS containing 2% BSA was added to rinse the cells twice, centrifugation was performed at 500 g, 4° C. for 5 minutes, and the supernatant was discarded. Fluorescent secondary antibody (PE Streptavidin, BD, Cat #: 554061, 1:200) was added at 100 μL/well, and incubation was performed at 4° C. for 30 minutes in the dark. The cells were washed twice with 200 μL/well of pre-cooled PBS, and were centrifuged at 500 g, 4° C. for 5 minutes, and the supernatant was discarded. Finally, 200 μL/well of pre-cooled PBS was used to resuspend the cells, and the fluorescence signal values were read using ACEA Novocyte 3000 flow cytometer. IC50 values were calculated.

[6] = biological target: T1, human CD200R1 isoform a on CHOK1 cells …; assay: flow cytometry, CHOK1/hCD200R1a cells (FITC-Mean); table beside the curves, head without unit, x axis Log [Ab] (nM)
[7] = biological target: T1, human CD200R1 isoform a on CHOK1 cells …; assay: flow cytometry blocking assay: antibody titrated against biotin-labelled human CD200 binding to CHOK1/hCD200R1a cells
Description: To study the activity of human anti-CD200R1 antibodies in blocking the binding of human CD200 to its receptor CD200R1a in vitro, CHOK1/hCD200R1a was used to perform cell-level human CD200/human CD200R1a binding and blocking experiments.
as §4

[8] = biological target: T1, human CD200R1 isoform a on CHOK1 cells …; assay: flow cytometry blocking assay: antibody titrated against biotin-labelled human CD200 binding to CHOK1/hCD200R1a cells; head prints EC50 without unit, x axis Log [Ab] (nM), y axis Inhibition %
Description: as §4

[9] = biological target: T4, CD200R1a on PathHunter Jurkat CD200R1a …; assay: cell-based or functional assay
[10] = biological target: T4, CD200R1a on PathHunter Jurkat CD200R1a …; assay: cell-based or functional assay; remark: listed apart in the source
[11] = biological target: T5, Cynomolgus macaques CD200R1 isoform a …; assay: flow cytometry, CHOK1/cynoCD200R1a cells (APC-A Mean); table beside the curves

Row | Binder | MFI(Max) [1] | MFI(Max) [2] | Kd [3] [nM] | koff [3] [s⁻¹] | kon [3] [M⁻¹ s⁻¹] | Kd (Cyno CD200R1a-His) [nM] | koff (Cyno CD200R1a-His) [s⁻¹] | kon (Cyno CD200R1a-His) [M⁻¹ s⁻¹] | EC50 [4] [nM] | Blocking(Max) [5] [%] | EC50 [6] [nM] | Blocking (Max %) [7] [%] | IC50 [7] [nM] | EC50 [8] [nM] | IC50 of the inhibition of CD200-induced PathHunter Jurkat CD200R1a luminescence (CHOK1/hCD200 cells as CD200 source) [9] [nM] | IC50 of the inhibition of CD200-induced PathHunter Jurkat CD200R1a luminescence (CHOK1/hCD200 cells as CD200 source) [10] [nM] | EC50 [11] [nM] | MFI (MAX) [11]
1 | B1 | 78600 | 19300 | 5.83 | 0.000316 | 54200 | 272 | 0.0609 | 224000 | 4.32 | 101 | 0.311 | 103 | 0.419 | 0.471 | – | – | – | –
2 | B2 | – | 19700 | – | – | – | – | – | – | – | 100 | 0.374 | – | – | 0.594 | 2 | 2.13 | 2.74 | 35700
